# Data taken from paper PMC9911399, “Two distinct binding modes provide the RNA-binding protein RbFox with extraordinary sequence specificity”.
# Numbering of substitutions follows the chain as printed; changes in the protein carry UniProt numbers. Some of the results follow.
# T1: RBFOX1 RRM RbFoxmut (Fox-RRM*) (Homo sapiens, UniProt Q9NWB1 109-208, R118D;E147R;N151S;E152T)
# T1 sequence: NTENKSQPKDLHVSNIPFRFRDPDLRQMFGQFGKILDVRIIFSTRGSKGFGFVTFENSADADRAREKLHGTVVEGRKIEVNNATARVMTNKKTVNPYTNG
# B1: CGGCCCU (DNA:RNA)
# RNA: GGGAGACCGGAAUUCAGAUUGUCCCGGCCCUUUAAAUCCCGUCGUAGCCACCA
# DNA 1: CAATCTGAATTCCGGTCTCCC
# DNA 2: TGGTGGCTACGACGGGATT
# B2: GGACUGG (DNA:RNA)
# RNA: B1 RNA with C25G, G27A, C29U, C30G, U31G
# DNA 1: CAATCTGAATTCCGGTCTCCC
# DNA 2: TGGTGGCTACGACGGGATT
# B3: UCUUGAC (DNA:RNA)
# RNA: GGGAGACCGGAAUUCAGAUUGUCCUCUUGACUUAAAUCCCGUCGUAGCCACCA
# DNA 1: CAATCTGAATTCCGGTCTCCC
# DNA 2: TGGTGGCTACGACGGGATT
# B4: ACCAUGC (DNA:RNA)
# RNA: B3 RNA with U25A, U27C, U28A, G29U, A30G
# DNA 1: CAATCTGAATTCCGGTCTCCC
# DNA 2: TGGTGGCTACGACGGGATT
# B5: UCUGCAG (DNA:RNA)
# RNA: B3 RNA with U28G, G29C, C31G
# DNA 1: CAATCTGAATTCCGGTCTCCC
# DNA 2: TGGTGGCTACGACGGGATT
# B6: CAUCGGU (DNA:RNA)
# RNA: B1 RNA with G26A, G27U, C29G, C30G
# DNA 1: CAATCTGAATTCCGGTCTCCC
# DNA 2: TGGTGGCTACGACGGGATT
# B7: GUCAGUU (DNA:RNA)
# RNA: B1 RNA with C25G, G26U, G27C, C28A, C29G, C30U
# DNA 1: CAATCTGAATTCCGGTCTCCC
# DNA 2: TGGTGGCTACGACGGGATT
# B8: GCGGAGA (DNA:RNA)
# RNA: B1 RNA with C25G, G26C, C28G, C29A, C30G, U31A
# DNA 1: CAATCTGAATTCCGGTCTCCC
# DNA 2: TGGTGGCTACGACGGGATT
# B9: UCGGGAU (DNA:RNA)
# RNA: B3 RNA with U27G, U28G, C31U
# DNA 1: CAATCTGAATTCCGGTCTCCC
# DNA 2: TGGTGGCTACGACGGGATT
# B10: CGAAACA (DNA:RNA)
# RNA: B1 RNA with G27A, C28A, C29A, U31A
# DNA 1: CAATCTGAATTCCGGTCTCCC
# DNA 2: TGGTGGCTACGACGGGATT
# B11: UCGAUGG (DNA:RNA)
# RNA: B3 RNA with U27G, U28A, G29U, A30G, C31G
# DNA 1: CAATCTGAATTCCGGTCTCCC
# DNA 2: TGGTGGCTACGACGGGATT
# B12: UUUUCAG (DNA:RNA)
# RNA: B3 RNA with C26U, G29C, C31G
# DNA 1: CAATCTGAATTCCGGTCTCCC
# DNA 2: TGGTGGCTACGACGGGATT
# B13: GUAACUA (DNA:RNA)
# RNA: B1 RNA with C25G, G26U, G27A, C28A, C30U, U31A
# DNA 1: CAATCTGAATTCCGGTCTCCC
# DNA 2: TGGTGGCTACGACGGGATT
# B14: CUGAUAA (DNA:RNA)
# RNA: B1 RNA with G26U, C28A, C29U, C30A, U31A
# DNA 1: CAATCTGAATTCCGGTCTCCC
# DNA 2: TGGTGGCTACGACGGGATT
# B15: CAGUUGA (DNA:RNA)
# RNA: B1 RNA with G26A, C28U, C29U, C30G, U31A
# DNA 1: CAATCTGAATTCCGGTCTCCC
# DNA 2: TGGTGGCTACGACGGGATT
# B16: CAGCUUU (DNA:RNA)
# RNA: B1 RNA with G26A, C29U, C30U
# DNA 1: CAATCTGAATTCCGGTCTCCC
# DNA 2: TGGTGGCTACGACGGGATT
# B17: CCUAUUC (DNA:RNA)
# RNA: B3 RNA with U25C, U28A, G29U, A30U
# DNA 1: CAATCTGAATTCCGGTCTCCC
# DNA 2: TGGTGGCTACGACGGGATT
# B18: CACCUGG (DNA:RNA)
# RNA: B1 RNA with G26A, G27C, C29U, C30G, U31G
# DNA 1: CAATCTGAATTCCGGTCTCCC
# DNA 2: TGGTGGCTACGACGGGATT
# B19: UAAAUAU (DNA:RNA)
# RNA: B3 RNA with C26A, U27A, U28A, G29U, C31U
# DNA 1: CAATCTGAATTCCGGTCTCCC
# DNA 2: TGGTGGCTACGACGGGATT
# B20: UGGUUGC (DNA:RNA)
# RNA: B3 RNA with C26G, U27G, G29U, A30G
# DNA 1: CAATCTGAATTCCGGTCTCCC
# DNA 2: TGGTGGCTACGACGGGATT
# Molecular target: T1, RBFOX1 RRM RbFoxmut (Fox-RRM*)
# Experiment: EMSA; HiTS-Eq, 1 nM pool, 10 min; buffer printed only for the single-RNA assays: 10 mM Tris pH 7.5, 150 mM NaCl, 3.4 mM EDTA, 0.001% NP-40, 30 C
# Details: tags: His6 N-terminal (pET28a); label: 5' 32P
# Method in brief: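 These values rest on relative association constants, computed from read-count changes of each RNA species versus the control reaction and normalised to the cognate motif. Reads came from free RNA recovered by 8% native PAGE after purified RbFox RRM (wild type or mutant) at increasing concentrations was equilibrated for 10 min in 50 µL with 1 nM of a 5′-radiolabelled pool with 7 randomized nucleotides and DNA-annealed flanks.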
row,Binder,binding signal
1,B1,0.0522 KA relative to UGCAUGU
2,B2,0.206 KA relative to UGCAUGU
3,B3,0.0989 KA relative to UGCAUGU
4,B4,0.0949 KA relative to UGCAUGU
5,B5,0.112 KA relative to UGCAUGU
6,B6,0.111 KA relative to UGCAUGU
7,B7,0.0775 KA relative to UGCAUGU
8,B8,0.0827 KA relative to UGCAUGU
9,B9,0.0757 KA relative to UGCAUGU
10,B10,0.0759 KA relative to UGCAUGU
11,B11,0.0892 KA relative to UGCAUGU
12,B12,0.113 KA relative to UGCAUGU
13,B13,0.103 KA relative to UGCAUGU
14,B14,0.0763 KA relative to UGCAUGU
15,B15,0.107 KA relative to UGCAUGU
16,B16,0.116 KA relative to UGCAUGU
17,B17,0.0746 KA relative to UGCAUGU
18,B18,0.099 KA relative to UGCAUGU
19,B19,0.0636 KA relative to UGCAUGU
20,B20,0.252 KA relative to UGCAUGU
